Laboratory results as given in PubChem BioAssay AID1508642 (National Center for Advancing Translational Sciences (NCATS), 2021).
The campaign covered roughly 43,000 compounds. About 200 (0.47%) were called active. Another 12% or so got no clear call; they are omitted. Calls follow the shape of the dose curve; as a rule, active = well fitted cell-killing curve with a large enough effect; inconclusive = small, poorly fitted or top-dose-only effect, or effect the other way; inactive = flat fitted curve, though single readings scatter. The list shows a part of the results.

assay: Cell viability qHTS assay in S16 Pmp22-F2sN cells; conditions: S16 Pmp22-F2sN Schwann cells viability, CellTiter-Glo, 24 h; series mostly up to 57.5 µM; activity change, negative = cytotoxicity: at the top concentration; also: nearly all actives have a fitted effect of over 65% in size
Outline: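 Viability was measured by CellTiter-Glo luminescence (15 min, room temperature). This followed 24 h at 37 °C of compound exposure (23 nL pin transfer) in S16 Pmp22-F2sN Schwann cells, 500-1,000 per well.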
% is scaled to controls: 0 for no effect and ±100 for the full control effect.

SMILES	activity change, negative = cytotoxicity
COc1ccc(NC(=O)C2CCC(CNS(=O)(=O)c3ccc4c(c3)C(C)(C)C(=O)N4C)CC2)cc1 (stereo not drawn)	inactive: 5.88%
CCOc1ccc(Nc2ncnc3c2nc2n3CCCCC2)cc1	inactive: 17.2%
Cc1cccc(N2CCN(C(=O)Cn3ncc4c3-c3ccccc3OC4)CC2)c1C	inactive: 0.596%
CC(=O)c1ccc(NC(=O)c2nc(-c3ccccc3)n(-c3ccccc3Cl)n2)cc1	inactive: -0.241%
COc1ccc(CNCCCSc2nnnn2C)c(OC)c1	inactive: 5.73%
CCc1nnc(SCc2ccc(F)cc2Cl)c2cc3sc(C)cc3n12	inactive: 3.31%
O=C(COc1ccccc1)Nc1ccc2nc(SCC(=O)N3CCc4ccccc43)sc2c1	inactive: -11.5%
CCOc1ccc(C(=O)Nc2onc3c2CCCC3)cc1	inactive: -1.7%
N#Cc1ccccc1Cn1c(SCC(=O)Nc2ccc(F)cc2)nc2ccccc21	inactive: 0.724%
Cn1cnc(S(=O)(=O)N2CCC(C(=O)Nc3ccc(C#N)cc3)CC2)c1	inactive: 2.25%
CCOc1cc(C(=O)Nc2ccc(-c3nc4cc(Cl)ccc4o3)cc2)cc(OCC)c1OCC	inactive: 3.04%
CC(=O)c1cccc(-n2c(=O)c3c4c(sc3n(CC(=O)c3ccc(Cl)cc3)c2=O)CN(C(C)=O)CC4)c1	inactive: 3.88%
CC1CCCCN1C(=O)CSc1n[nH]c(-c2ccccc2)n1 (stereo not drawn)	inactive: -1.83%
Cc1cccc(C(=O)N(Cc2ccco2)Cc2ccccc2F)c1	inactive: -2.48%
Cc1ccc(CCNC(=O)C2CC(=O)N(CCc3ccccc3)C2)cc1 (stereo not drawn)	inactive: -0.75%
COc1ccc(CCNC(=O)c2ccc3c(c2)c(C)c(C)n3Cc2ccccc2)c(OC)c1OC	inactive: -21.5%
O=C(Nc1cccc(Cl)c1)c1cc(-c2ccccc2)on1	inactive: 6.48%
COc1ccc(CNC(=O)CCCc2nnc3n(CCC(C)C)c(=O)c4sccc4n23)cc1	inactive: 4.91%
Cn1cc(C(=O)NCCc2ccc(Cl)cc2)c(=O)c2cc(S(=O)(=O)N3CCOCC3)ccc21	inactive: 3.96%
O=c1[nH]c(C2CCCN(S(=O)(=O)c3ccccc3Cl)C2)nc2c1nnn2Cc1ccc(OC(F)(F)F)cc1 (stereo not drawn)	inactive: 4.22%
CCC(=O)Nc1ccccc1-c1nc2ccccc2n(C(C)C(=O)Nc2ccc(OC)cc2)c1=O (stereo not drawn)	inactive: 0.578%

SMILES	activity change, negative = cytotoxicity
O=C(O)c1ccc(N2C(=O)c3[nH]nc(-c4ccccc4)c3C2c2cccc(F)c2)cc1 (stereo not drawn)	inactive: 16.6%
CN(c1ccccc1)c1ncnc2c1cnn2C	inactive: -14.7%
COc1ccc(N2CCN(C(=O)c3cc4cc5ccc(Cl)cc5nc4o3)CC2)cc1	inactive: -0.81%
COc1ccc(C)cc1S(=O)(=O)NCC(c1ccc(N(C)C)cc1)N1CCc2ccccc21 (stereo not drawn)	inactive: -4.79%
Cc1cc(NC(=O)N2CCC(CN3CCOCC3)CC2)ccc1Br	inactive: 5.52%
COc1cccc(C2C(=O)N(C3CCCCC3)CC(=O)N2Cc2ccc(Cl)cc2)c1 (stereo not drawn)	inactive: -7.42%
Cc1ccc2c(c1)C(=O)OC(C(=O)Nc1ncc(Cc3ccccc3)s1)C2 (stereo not drawn)	inactive: 7.9%
CCc1ccc(C2C(C(=O)Nc3ccc(Cl)cc3)=C(C)Nc3ncnn32)cc1 (stereo not drawn)	inactive: -8.72%
CCNc1nc(Oc2ccc(=O)n(-c3ccccc3)n2)nc(N(C)C)n1	inactive: 2.68%
CC(C)Oc1ccc(C(=O)Nc2ccc(-c3nc4ccccc4s3)cc2)cc1	inactive: -2.71%
COc1ccc(CCC(=O)NCc2nc3cccnc3n2Cc2ccccc2)cc1	inactive: 10.5%
Cc1ccc(Cl)cc1NC(=O)CCCN1C(=O)CCn2nc(-c3cn(C)c4ccccc34)cc21	inactive: -2.68%
CCOc1ccc(CCNC(=O)CCn2c(=O)c3cccn3c3cccnc32)cc1	inactive: -12.1%
COc1ccccc1C(=O)Nc1cc(-c2ccc(C)cc2)no1	inactive: -4.57%
Cc1ccccc1Cn1c(CN2CCN(c3cc(Cl)ccc3C)CC2)nc2c1c(=O)[nH]c(=O)n2C	inactive: 1.06%
CCc1ccccc1Nc1nn2c(=O)c3ccc(C(=O)Nc4ccc(OC)cc4)cc3nc2s1	inactive: -17.8%
CC(=O)Nc1cc(-c2ccccc2)nn1Cc1cccc(Cl)c1	inactive: -5.16%
Cc1cccc(NC(=O)NCCOCCn2c(=O)oc3ccccc32)c1C	inactive: 0.468%
O=C(CSc1nc2ccccc2nc1Cc1ccccc1)N1CCN(c2ccccc2)CC1	inactive: 6.2%
Cc1noc(NS(=O)(=O)c2ccc(NC(=O)c3ccc(Br)cc3)cc2)c1C	inactive: -3.89%
COC(=O)c1nnn(CC(=O)NC(=O)Nc2ccccc2F)c1C(=O)OC	inactive: 10.8%

SMILES	activity change, negative = cytotoxicity
Cc1c(Cl)cccc1NC(=O)c1ccc2nc(C(C)C)oc2c1	inactive: 2.42%
Cc1c(Cl)cccc1-n1c(CCC(=O)O)ccc1-c1cccs1	inactive: 0.0616%
CCSc1nc2n(n1)C(c1ccc(CC)cc1)C(C(=O)Nc1ccccc1OC)=C(C)N2 (stereo not drawn)	inactive: 19%
CCC(C(=O)N1CCN(c2cc(Cl)ccc2C)CC1)n1nc(C)n2c(cc3occc32)c1=O (stereo not drawn)	inactive: -10.5%
COc1ccc(Br)cc1CNC(=O)C(C)n1nc(C)n2c(cc3occc32)c1=O (stereo not drawn)	inactive: -0.0673%
CCc1cccc(NC(=O)CN2C(=O)CCc3cc(S(=O)(=O)N4CCOCC4)ccc32)c1	inactive: 22.6%
COc1cc(CNCc2c(C(=O)O)c(C)n(Cc3cccc(Cl)c3)c2C)cc(OC)c1OC	inactive: 4.04%
CCc1ccc2nc(N3CCC(C(=O)O)CC3)sc2c1	inactive: -2.96%
Cc1ccc(CN2CCSc3ccc(C(=O)Nc4ccc(F)cc4F)cc32)cc1	inactive: -1.86%
Cc1ccc2oc(C(=O)Nc3nnc(CC(C)C)s3)cc(=O)c2c1	inactive: -23.9%
CCc1ccc(NC(=O)CSc2nccn2C2CCCC2)cc1	inactive: -1.96%
Cc1ccc(C)c(S(=O)(=O)c2cnc(SCC(=O)Nc3ccc(F)cc3F)[nH]c2=O)c1	inactive: 0.496%
Cc1cc2c(=O)c(C(=O)c3ccncc3)cn(CC(=O)Nc3cccc(C)c3C)c2cc1C	inactive: 10.8%
CC(NC(=O)CN(C)S(=O)(=O)c1ccc2c(c1)c(=O)n(C)c(=O)n2C)c1ccccc1 (stereo not drawn)	inactive: 1.42%
Cn1cc(S(=O)(=O)N2CCCCC2)cc1C(=O)N1CCN(c2ccc(F)cc2)CC1	inactive: 11.9%
Cc1cc(=O)n(CC(=O)NCCC(C)C)c2c1c(C)nn2C	inactive: 7.47%
Cc1ccc2c(c1)c(=O)c(C(=O)c1ccncc1)cn2CC(=O)Nc1c(C)cccc1C	inactive: 8.23%
Cc1cccc(NC(=O)Cn2c(=O)oc3cc(S(=O)(=O)NCc4ccccc4)ccc32)c1	inactive: -10.4%
Cc1ccc2nc(N(Cc3cccnc3)C(=O)C3CCCCC3)sc2c1	inactive: 2.79%
COc1ccc(Br)cc1C1CC(=O)Nc2c1c(C)nn2-c1nc(C)cc(C)n1 (stereo not drawn)	inactive: 0.373%
CCn1cc(C(=O)OCC(=O)Nc2cc(Cl)ccc2OC)c(=O)c2ccc(C)nc21	inactive: -1.08%
